Assay results taken from the supplement of paper PMC11417369.
± gives the standard deviation of the averaged measurements. The list shows a part of the results.

system: PfAP2-EXP AP2 domain (GST-tagged); assay: gcPBM binding intensity (ln(normalized median fluorescence intensity)); higher = stronger DNA binding
Method in brief: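 Alexa488 anti-GST antibody, scanned at 488 nm, detected GST-tagged P. falciparum DNA-binding domains that had been expressed in E. coli and incubated for 1 h on an Agilent 4 × 180k array. The array carried primer-extended double-stranded 36-bp intergenic genomic probes and negative controls. Binding intensity is the highest Masliner-normalised natural-log median intensity across replicate spots of either orientation of each probe.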

Sequence	gcPBM binding intensity (ln)
TATATAATATATATATGTACACATATACATTTTTAT [XGTACX_site2832]	8.3 ± 0.17
TTGTAAGAAAAACACACACACACATATATATATATA [CACACA_site795]	10.1 ± 0.23
TTTTCGGATAATAATTGTACGAAACATTTAAAAAAA [XGTACX_site8898]	8.44 ± 0.4
ACTCAAAATTATAATTGTACAAATGCTTTGTTTAAT [XGTACX_site3437]	8.71 ± 0.53
TAAATAGTTATAAAAGTGCAAAAAAAAAAAAAAAAA [GTGCAC_site9550]	8.19 ± 0.26
ATCATATATGTTATTACACACGTTATGTTATTATAA [CACACA_site2712]	8.64 ± 0.36
TATAATTTAGCTTGTGCATGCAGGTGCTACATTTGT [TGCATGCA_site217]	9.835 ± 0.092
TTAATTTCAAGTAGAAGTACTTTTATGATTGTGAGG [XGTACX_site1247]	8.41 ± 0.6
GTGCATAGATGATATACACACAATATAATAGTATGT [CACACA_site5373]	8.48 ± 0.28
GTTTCAAAATTAAACACACACAAAAAAAAAAAAAAA [CACACA_site2680]	8.07 ± 0.58
TATTATATCTTTATTATTCATCTAAAATTTGTATTT [TGCATGCA_negctrl_site233]	8.36 ± 0.55
CTATAACCTCTGTTCACACATATATCATAATTTACA [CACACA_site5446]	8.77 ± 0.44
TTTATTTTGATTTAATGTACAAATAGTAAAACAAAA [XGTACX_site4789]	8.73 ± 0.3
ACATTATATCTAAGTACACACATTAATTTTTTTTTT [CACACA_site7850]	8.63 ± 0.37
TATTTAAAAGCATATACACACAACTGGAATGAAAAG [CACACA_site6128]	8.9 ± 0.3
TTGTTTTTCTTTGAATGTACTTAATGATTTCCAATT [XGTACX_site2499]	8.75 ± 0.44
TCCATATATTTTAAAAGTACACATAAAAATTATTTA [XGTACX_site8127]	8.41 ± 0.3
AATGGAAAAATAGGCACACACACATATATACATATA [CACACA_site1298]	8.79 ± 0.46
TAAAATAAAACAAACACACACACACGGACACAAAAA [CACACA_site7754]	8.91 ± 0.47
TTTTTTTTTTATTTTGCACACTTCTAATTTAGTTCT [CACACA_site5828]	9.16 ± 0.26
ATATAAATAAAATATACACACATACTGTTCATTTAA [CACACA_site7880]	8.28 ± 0.26
AAGTTAATGAAAAAATGTACCCAGAGTATTTTAAAA [XGTACX_site2997]	8.49 ± 0.32

Sequence	gcPBM binding intensity (ln)
AAAAAAAAAAAAGATTGTACAGAATACTTTTAAAAT [XGTACX_site3576]	8.105 ± 0.007
TGGGAAAATAATATTTATTTTATATATAAATATATA [CACACA_negctrl_site121]	7.92 ± 0.3
TATTGTAATATTAGCACACATTACCTCACTACAAAT [CACACA_site5419]	8.72 ± 0.4
AACATGAAAATATATGCATTTGTATATATATATATA [TGCATGCA_negctrl_site16]	10 ± 0.31
AAAATACTAGATAGGGGAAAAAAAAAAAAAAAAAAA [CACACA_negctrl_site1732]	8.18 ± 0.71
AAAGCACCCATGCACACACACAAAGGAAAAGAAAAA [CACACA_site6249]	8.55 ± 0.46
ATAAATGATAAAATTGCATGTGAATGTGAAAATATT [TGCATGCA_site251]	9.02 ± 0.44
AATAAAACCCCGAAATCACACATTAAATGAAAAATA [CACACA_site4732]	9.18 ± 0.83
AAGTATGTCGACTGTTGTACTTTTATCATTTATTAT [XGTACX_site1129]	8.7 ± 0.43
ATATACTATGATAATACATGCGATAATACATTTTTA [TGCATGCA_site387]	8.56 ± 0.16
AATAAAAAAATGTCACGTACTTATTTTATTAAACCT [XGTACX_site3031]	8.44 ± 0.35
TATTTATCATCATATTGTACATTATATATATAAAAT [XGTACX_site6675]	8.59 ± 0.39
GTATGGCGTATCATATGTACTAAAAAAAAATAAAAA [XGTACX_site5101]	8.66 ± 0.52
ATATATATATATAGTGCACACATATAAAATATATAT [CACACA_site8884]	10.29 ± 0.021
TTATATGCTCAATGTTGTACATGTAGATATATATAT [XGTACX_site8211]	9.315 ± 0.035
ATCTGTCGACAGGACAGTACACAGTAGCCAGTAACT [XGTACX_site2001]	8.6 ± 0.51
TTTTTTAATTGTGATACGTATATTATTTAATGATAA [GTGCAC_negctrl_site704]	8.58 ± 0.61
TGTATATTTTTTATTACACACTTTTTACTTTTTAGA [CACACA_site3069]	8.46 ± 0.35
ATAAAATATAGATGCACACACATATAGATTTCATAC [CACACA_site7636]	8.54 ± 0.26
AGTATATACACGTGCGTGCACAGATATTCTTTTTTT [GTGCAC_site9398]	8.6 ± 0.3
GATATAATTATATTATGGTGTTTTTGATAGATATTT [GTGCAC_negctrl_site313]	8.4 ± 0.46
TATTTTAAAGAGAAAACATGCATTATATAGAACATT [TGCATGCA_site328]	8.64 ± 0.45

Sequence	gcPBM binding intensity (ln)
ATCAAACCATAAAAGAGTACAAAAGGATGATATTTT [XGTACX_site8883]	8.79 ± 0.59
ATGGAAATATATACATGTACATAAATATATATATAT [XGTACX_site8391]	9.96 ± 0.13
AGTAGTCTGGAGAAGAGTACATAGTATCTGGTAACC [XGTACX_site2043]	8.67 ± 0.48
AGTGGACTTTTTTTTTTTTTTTTTTTTTTTTTATTA [CACACA_negctrl_site547]	8.11 ± 0.6
ATGTTTTGCATATATTATATATTTATTTATTTTTTT [CACACA_negctrl_site729]	8.41 ± 0.33
AGAGAGATGACAAAAAGATGAATAACGTTAAGGGAT [XGTACX_negctrl_site120]	9.24 ± 0.56
TATTTATTGTGATACTTATATTATTTTATGATTAAA [CACACA_negctrl_site901]	8.27 ± 0.37
AATTATATTCTATTCACACATATTCCAACCTCTTTT [CACACA_site4670]	8.85 ± 0.52
AAAAGATAATTATGCACACACACACCCAGACACAAC [CACACA_site5428]	9.11 ± 0.4
ATGAATATAATAAAGAAACACACGTATACATAATGA [CACACA_site1355]	8.8 ± 0.54
TGTATGTTGTAAAATTGTACATATATATTATATTTA [XGTACX_site4883]	8.35 ± 0.28
TGAAAGAACCTGATTACACACATAAATTATATATAT [CACACA_site26]	8.43 ± 0.32
TTTGATGGTACACGTACACACCTTGCAAATATTTTT [CACACA_site4645]	8.89 ± 0.37
AGTTCTTCGTACCAAAAAACGGCACGCATATGTATA [TGCATGCA_negctrl_site469]	8.56 ± 0.39
TGTATTCATACATGCACACGTACATATTTAAATATA [CACACA_site3926]	9.05 ± 0.18
TACTACTATCTATATTGTACAAAAGGTGCCTACAAA [XGTACX_site4267]	8.82 ± 0.26
TATTTCAAAAAAAAAAAAAATAAAAAACAACAACAA [CACACA_negctrl_site893]	8.54 ± 0.45
AAAAAAAATTATATATGTACTTATTAATCCTTATAT [XGTACX_site1389]	8.13 ± 0.2
ATTTATATATCGCCCACACACATGTGATTATTTATA [CACACA_site6905]	9.1 ± 0.42
TTCATTTATTTACTTACACACTTTATATATGTGGTT [CACACA_site4901]	8.85 ± 0.34
TCTATTCAAAATAAAAGTACTAGCATGTGAATTGTT [XGTACX_site5530]	8.71 ± 0.42
TACAAGTTTTTAAAGTGTACCAAAAAAAAAGAATAA [XGTACX_site979]	8.66 ± 0.36

Sequence	gcPBM binding intensity (ln)
ATATATAAAATATACACACATACTGTTCATTTAAAG [CACACA_site4169]	8.38 ± 0.42
TTACAACAGAATGGTATTTTTTTATTTTAAAGAAAA [TGCATGCA_negctrl_site230]	8.04 ± 0.38
ATATGTAAAACTTCAAAAAAATATATTTTATGACGA [GTGCAC_negctrl_site324]	8.48 ± 0.48
ATCCTACTATGTTATACACACAATTACTTTTTTCTC [CACACA_site3712]	9.03 ± 0.47
AATATTTATGTGAAGACACACAACTGTTTATTATAT [CACACA_site3447]	8.51 ± 0.44
TTTTTTCTTTCTTTCAAACACACATTAATTTTATTC [CACACA_site2733]	8.66 ± 0.49
AAAATTTATATAGGCACACAAATAAATTAATACATA [CACACA_site1418]	8.59 ± 0.33
AAAAATGAAAGGTGTACACATACAAACATAGAAAGA [CACACA_site5020]	9.29 ± 0.49
TTTTTTTTTTTTTGGTGTACTTTTTTTAGAACGCAA [XGTACX_site4207]	8.33 ± 0.3
TGTTCAAATTTATTCGATCTTTATATTTAATAAAAC [CACACA_negctrl_site781]	8.21 ± 0.4
ATTCTACACCCACATACACACATATATATATATATA [CACACA_site3426]	10.2 ± 0.26
ATATTAGAAATATGAATAGAAAGAATATATAAGTAT [CACACA_negctrl_site682]	8.81 ± 0.44
AGATACTTTCCTCAAACACACAAAACTATACAACAA [CACACA_site1474]	8.71 ± 0.54
GTTAGCTCGTTCGGAGCACACACATATATATATATA [CACACA_site8595]	10.1 ± 0.45
ATTCAGTTCTATAATACACACATATATTGACATTAT [CACACA_site7309]	8.71 ± 0.39
ATATTCTTCTAAAGGCGTACATCTACATTTATGAAA [XGTACX_site2145]	8.84 ± 0.16
AGATACGATTATATGCGTTCAATATACCAAATAATT [TGCATGCA_negctrl_site501]	8.49 ± 0.23
CTTTGTGTTAAAAGTAGTACACCAAAAATATGACTT [XGTACX_site622]	8.7 ± 0.42
GAATAAATATTAAATGTGCACTTGAATAGATGTAAA	9.07 ± 0.014
CACGCGCCCGGACACACACACACACCCATATATATA [CACACA_site5251]	8.92 ± 0.37
TTTTTCATCATATGTTGTACAATGTGTAGATATATT [XGTACX_site3195]	8.69 ± 0.2
